IC50 is the fitted dose that halves viability relative to control wells, and lower means more sensitive; a fit beyond the top or the lowest dose is shown as a bound at that dose. For AUC the same curve is integrated over the 256-fold range of doses and scaled to a fraction; it is 1 without any effect and falls as sensitivity rises. For some of these results: The top dose, if marked as inferred, is not printed in the source and was worked back from the curve model.
Legend:
Experiment in all cases: Viability of human cancer cell lines after 72 h of drug (GDSC screen)
KIN001-244 = compound: O=C(NC(COc1ccc2[nH]c(=O)[nH]c2c1)c1ccccc1)c1cccn(Cc2ccc(F)c(F)c2)c1=O [KIN001-244]; conditions: top dose 20 µM; top dose inferred
Procedure: (§1)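 Human cancer cell lines in 384-well plates, medium with 10% serum, drug for 72 h over a 256-fold dose range (nine 2-fold or five 4-fold steps up to the top dose). Adherent lines were fixed and stained with the nucleic acid dye Syto60, suspension lines read with resazurin; signal relative to control wells, capped at 0 and 100%. One two-parameter sigmoid per drug and line, fitted in a mixed model over all curves with the slope shared within a line.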

Trametinib = compound: CC(=O)Nc1cccc(-n2c(=O)n(C3CC3)c(=O)c3c(Nc4ccc(I)cc4F)n(C)c(=O)c(C)c32)c1 [Trametinib]; conditions: top dose 1 µM
Procedure: as §1

PF-4708671 = compound: CCc1cncnc1N1CCN(Cc2nc3ccc(C(F)(F)F)cc3[nH]2)CC1 [PF-4708671]; conditions: top dose 10 µM; top dose inferred
Procedure: as §1

AV-951 = compound: COc1cc2nccc(Oc3ccc(NC(=O)Nc4cc(C)on4)c(Cl)c3)c2cc1OC [AV-951]; conditions: top dose 0.128 µM; top dose inferred
Procedure: as §1

I-BET-762 = compound: CCNC(=O)C[C@@H]1N=C(c2ccc(Cl)cc2)c2cc(OC)ccc2-n2c(C)nnc21 [I-BET-762]; conditions: top dose 20 µM; top dose inferred
Procedure: as §1

Cell Line | AUC (KIN001-244) | IC50 (KIN001-244) [µM] | AUC (Trametinib) | IC50 (Trametinib) [µM] | AUC (PF-4708671) | IC50 (PF-4708671) [µM] | AUC (AV-951) | IC50 (AV-951) [µM] | AUC (I-BET-762) | IC50 (I-BET-762) [µM]
A375 (melanoma, adherent) | 0.893 | 16.3 | 0.033 | < 0.00391 | 0.985 | > 10 | 0.991 | > 0.128 | 0.96 | > 20
BALL-1 (B-cell leukaemia, suspension) |  |  | 0.997 | > 1 | 0.967 | > 10 |  |  |  | 
BT-549 (breast, adherent) |  |  | 0.794 | 0.678 | 0.916 | > 10 |  |  |  | 
CADO-ES1 (Ewing sarcoma, suspension) | 0.79 | 9.11 | 0.981 | > 1 | 0.915 | > 10 | 0.971 | > 0.128 | 0.9 | > 20
CL-34 (large intestine, adherent) |  |  | 0.107 | < 0.00391 | 0.957 | > 10 |  |  |  | 
CL-40 (large intestine, adherent) |  |  | 0.244 | 0.00666 | 0.97 | > 10 |  |  |  | 
CML-T1 (chronic myeloid leukaemia, suspension) |  |  | 0.648 | 0.149 | 0.971 | > 10 |  |  |  | 
COR-L32 (small cell lung carcinoma, suspension) |  |  | 0.828 | > 1 |  |  |  |  |  | 
COR-L321 (lung, suspension) | 0.894 | > 20 | 0.988 | > 1 | 0.929 | > 10 | 0.983 | > 0.128 | 0.886 | > 20
D-423MG (glioma, adherent) | 0.713 | 5.8 | 0.887 | > 1 | 0.883 | > 10 | 0.976 | > 0.128 | 0.863 | > 20
D-566MG (glioma, adherent) | 0.87 | 18.1 | 0.576 | 0.101 | 0.889 | > 10 | 0.975 | > 0.128 | 0.879 | > 20
DIFI (large intestine, adherent) |  |  | 0.408 | 0.0346 | 0.981 | > 10 |  |  |  | 
DOV13 (ovary, adherent) | 0.829 | 15.1 | 0.711 | 0.273 | 0.932 | > 10 | 0.983 | > 0.128 | 0.982 | > 20
EMC-BAC-1 (lung adenocarcinoma, adherent) | 0.926 | > 20 | 0.509 | 0.0664 | 0.959 | > 10 | 0.954 | > 0.128 | 0.864 | > 20
EMC-BAC-2 (lung adenocarcinoma, adherent) | 0.89 | > 20 | 0.568 | 0.0991 | 0.958 | > 10 | 0.972 | > 0.128 | 0.842 | 18
ESO26 (oesophagus, adherent) | 0.698 | 4.33 | 0.978 | > 1 | 0.989 | > 10 | 0.983 | > 0.128 | 0.669 | 3.58
ESO51 (oesophagus, semi-adherent) | 0.873 | > 20 | 0.705 | 0.302 |  |  | 0.972 | > 0.128 | 0.694 | 5.54

Cell Line | AUC (KIN001-244) | IC50 (KIN001-244) [µM] | AUC (Trametinib) | IC50 (Trametinib) [µM] | AUC (PF-4708671) | IC50 (PF-4708671) [µM] | AUC (AV-951) | IC50 (AV-951) [µM] | AUC (I-BET-762) | IC50 (I-BET-762) [µM]
FLO-1 (oesophagus, adherent) | 0.792 | 13.9 | 0.645 | 0.19 | 0.898 | > 10 | 0.965 | > 0.128 | 0.951 | > 20
H2810 (mesothelioma, adherent) |  |  | 0.648 | 0.168 | 0.966 | > 10 |  |  |  | 
HCC202 (breast, adherent) | 0.867 | > 20 | 0.966 | > 1 | 0.944 | > 10 |  |  | 0.836 | > 20
HCC1143 (breast, adherent) | 0.911 | > 20 | 0.522 | 0.0736 | 0.979 | > 10 | 0.966 | > 0.128 | 0.975 | > 20
HCC-366 (non-small cell lung carcinoma, adherent) |  |  | 0.98 | > 1 | 0.988 | > 10 |  |  |  | 
IGROV-1 (ovary, adherent) |  |  | 0.59 | 0.124 | 0.933 | > 10 |  |  |  | 
JEKO-1 (B-cell lymphoma, suspension) |  |  | 0.984 | > 1 | 0.954 | > 10 |  |  |  | 
JHOS-4 (ovary, adherent) |  |  | 0.699 | 0.294 | 0.972 | > 10 |  |  |  | 
Jurkat (T-cell leukaemia, suspension) |  |  | 0.975 | > 1 | 0.917 | > 10 |  |  |  | 
KARPAS-1106P (B-cell lymphoma, suspension) |  |  | 0.993 | > 1 | 0.992 | > 10 |  |  |  | 
KATOIII (stomach, semi-adherent) |  |  | 0.795 | 0.42 | 0.948 | > 10 |  |  |  | 
KMS-11 (myeloma, suspension) | 0.852 | 12.1 | 0.97 | > 1 | 0.962 | > 10 | 0.988 | > 0.128 |  | 
KNS-62 (lung squamous cell carcinoma, adherent) |  |  | 0.233 | 0.00713 | 0.903 | > 10 |  |  |  | 
MEL-HO (melanoma, adherent) |  |  | 0.072 | < 0.00391 | 0.982 | > 10 |  |  |  | 
MHH-CALL-2 (B-cell leukaemia, suspension) |  |  | 0.997 | > 1 | 0.959 | > 10 |  |  |  | 
MKN7 (stomach, adherent) |  |  | 0.843 | > 1 | 0.932 | > 10 |  |  |  | 

Reference: the supplement of paper PMC4967469
